This note sets out measurements from PubChem BioAssay (NCATS).

This is one part of the list. These are further read-outs of the screen, such as a control signal, another cell line or another target. No call is given for them. The list favours compounds with an active or inconclusive main result. Potencies come from curve fits of mixed quality, noted in brackets.
Tags describe the fitted curve by direction and shape.

A short description of this test: qHTS Assay for Lipid Storage Modulators (AID 1519). The conditions noted are these: Drosophila S3 cells, BODIPY lipid droplet/cell ratio, laser cytometry; measured here: lipid (BODIPY) channel AC50; cells loaded with oleic acid. The gist of the method:
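Cells seeded at 5,000 per well were treated with compounds over a concentration series and loaded with oleic acid (400 uM, as added). Lipid droplet fluorescence (488 nm excitation, 500-530 nm channel) was read by laser-scanning cytometry and normalized to 20 uM Triacsin C.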
One may read the AC50 as the concentration giving half of the maximal activity seen. Take `COc1cccc(Nc2ncc3nc(-c4cc(F)cc(F)c4)c(=O)n(C4CC4)c3n2)c1`: the AC50 was 35.5 nM [rising, full curve].
In the case of `CNc1ncncc1-c1ccccc1CN(C)C` it was 1580 nM [rising, full curve, poor fit].
Consider `CN(Cc1ccco1)c1ncnc2ccc(-c3ccccc3C#N)cc12`, for which the AC50 is 891 nM [rising, full curve, poor fit].
Consider `C=CC(C)(O)CCCC(C)CCCC(C)CCCC(C)C` (stereo not given), for which the AC50 is 28200 nM [rising, partial curve, poor fit].
In the case of `COc1ccc2c(=O)c(-c3ccccc3)coc2c1` it was 7940 nM [rising, partial curve].
Turning to `N#Cc1cccc(-c2cncnc2NCc2cccnc2)c1`, the AC50 is 11200 nM [rising, partial curve].
In the case of `COc1ccccc1CNc1nc(-c2ccc3c(c2)OCO3)nc2ccccc12`, the AC50 was 35.5 nM [rising, full curve].
In the case of `CS(=O)(=O)Nc1cccc(-c2cncnc2NCc2cccnc2)c1` it was 4470 nM [rising, partial curve].
The value for `OC(CN1CCC(Cc2ccc(F)cc2)CC1)c1ccc(Cl)cc1` (stereo not given) was 11200 nM [falling, partial curve, poor fit]; that for `Cc1noc(C)c1-c1nc(Nc2ccc(F)cc2)c2ccccc2n1` was 355 nM [rising, full curve].
In the case of `COc1cccc(-c2cncnc2NCc2cccnc2)c1` it was 1000 nM [rising, full curve].
As for `CCNc1ncc2nc(-c3ccccc3)c(=O)n(CCc3ccccc3)c2n1`, the AC50 was 126 nM [rising, full curve, poor fit].
In the case of `CC(=O)NCCNc1nc(-c2ccc3c(c2)OCO3)nc2ccccc12` it was 20 nM [rising, full curve, poor fit].
Regarding `CCCn1c(=O)c2[nH]c(-c3ccccc3)nc2n(CCC)c1=O`, the AC50 is 1780 nM [rising, full curve].
In the case of `COc1ccc(C(=O)N2CCC3(CC2)CN(c2cccc(-c4ccccc4)c2)C3)cc1` it was 3160 nM [rising, partial curve]; in that of `COc1cccc(-c2nccc(NCc3ccccc3OC)n2)c1`, 1780 nM [rising, partial curve, poor fit]; in that of `COCCn1c(=O)c(-c2ccc(OC)cc2)nc2cnc(Oc3ccc(OC)cc3)nc21`, 1120 nM [rising, full curve].
With `COc1ccc(Oc2ncc3nc(CCc4ccccc4)c(=O)n(C4CC4)c3n2)cc1`, the AC50 is 3160 nM [rising, partial curve].
The value for `CN(C)c1nc(-c2cccc(C#N)c2)nc2ccccc12` was 501 nM [rising, partial curve].
Take `CCCCC(=O)NCCc1c(Cc2ccccc2)[nH]c2ccccc12`: the AC50 was 316 nM [rising, full curve, poor fit].
As to `COc1ccc2[nH]cc(CCNc3ncncc3-c3ccccc3C)c2c1`, the AC50 is 708 nM [rising, full curve].
The value for `COc1ccc(-c2nc3cnc(N4CCOCC4)nc3n(Cc3cccs3)c2=O)cc1` was 2240 nM [rising, full curve]; that for `C=CC(C)(C)c1[nH]c2ccccc2c1C1=C(O)C(=O)C(c2c[nH]c3c(CC=C(C)C)cccc23)=C(O)C1=O` was 14100 nM [rising, partial curve].
In the case of `COc1cc(/C=C\c2ccc(OC)cc2OC)cc(OC)c1` it was 3980 nM [rising, full curve].
As to `COCC(=O)N1CCC2(CC1)CCN(c1ccc(-c3ccccc3)cc1)CC2`, the AC50 is 398 nM [rising, full curve].
The value for `COc1ccc(-c2nc3cnc(OC)nc3n(Cc3cccs3)c2=O)cc1` was 6310 nM [rising, full curve]; that for `COc1ccc(/C=C/C(=O)c2cccs2)cc1OC` was 2820 nM [rising, full curve].
The value for `Nc1nc2c(c(=O)[nH]1)N=C(CNc1ccc(C(=O)NC(CCC(=O)O)C(=O)O)cc1)CN2` (stereo not given) was 14100 nM [rising, partial curve, poor fit]; that for `CCNc1ncc2nc(-c3ccc(Cl)cc3)c(=O)n(Cc3cccs3)c2n1` was 708 nM [rising, full curve, poor fit]; that for `Cc1noc(C)c1-c1nc(NC2CC2)c2ccccc2n1` was 20 nM [rising, full curve, poor fit].
For `Cc1cnc(CNc2ncncc2-c2ccccc2Cl)cn1`, the AC50 is 5620 nM [rising, partial curve].
For `N#Cc1cccc(-c2cncnc2NCc2ccccc2)c1`, the AC50 was 5620 nM [rising, partial curve].
With `COCCn1c(=O)cnc2cnc(N3CCNCC3)nc21`, the AC50 is 5620 nM [rising, single point].
The value for `CN(C)c1ccc(-c2cncnc2NCc2cccnc2)cc1` was 22.4 nM [rising, full curve]; that for `COc1ccc(-c2oc3cc(OC)c(OC(C)=O)c(OC)c3c(=O)c2OC)cc1OC(C)=O` was 2510 nM [rising, full curve]; that for `CN(C)c1ncc2nc(CCc3ccccc3)c(=O)n(CCc3ccccc3)c2n1` was 1580 nM [rising, partial curve, poor fit].
In the case of `COc1ccc(Cl)cc1N=Nc1ncc[nH]1` it was 1120 nM [rising, full curve].
The value for `COCCn1c(=O)c(CCc2ccccc2)nc2cnc(Oc3ccccc3)nc21` was 2240 nM [rising, full curve, poor fit]; that for `COc1ccc(NC(=O)N2CC3(CCN(S(=O)(=O)c4ccccc4)CC3)C2)cc1` was 22400 nM [falling, single point].
For the molecule `COc1ccc(-n2c(=O)c(-c3ccc(F)c(F)c3)nc3cncnc32)cc1`, the AC50 is 891 nM [rising, full curve].
